# PubChem BioAssay AID894 (National Center for Advancing Translational Sciences (NCATS), 2007)
# In all, about 150,000 compounds went through this assay and about 6,500 (4.3%) were called active. Inconclusive results, whose numbers are uncertain, are shown with a selection of clear calls. Calls follow the shape of the dose curve; as a rule, active = well fitted inhibition curve with a large enough effect (not every such curve was filed as active); inconclusive = small, poorly fitted or top-dose-only effect, or another doubt; inactive = no such curve, though single readings can be large or run the other way. No potency is given beside an inconclusive call; the fits are too rough. More than one record can exist for a structure, and the calls need not agree.
# Target: 15-hydroxyprostaglandin dehydrogenase [NAD(+)] (Homo sapiens) (UniProt P15428)
# Experiment: qHTS Assay for Inhibitors of HPGD (15-Hydroxyprostaglandin Dehydrogenase)
# Settings: purified HPGD, NADH fluorescence kinetic, PGE2 substrate; activity change, negative = inhibition: active compounds read low
# Method in brief: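 20 nM HPGD preincubated 15 min at room temperature with compound in 50 mM Tris-HCl pH 8, 0.01% Tween 20. Started with 1 mM NAD+ and 30 uM prostaglandin E2; NADH fluorescence (360/450 nm) read 5 times over 30-s intervals, last minus first.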
# % is scaled to controls: 0 for no effect and ±100 for the full control effect; potency is read from the fitted curve at half-maximal effect; tags tell the direction and shape of the fitted curve.
# Chain of UniProt P15428 (P15428 whole entry, looked up): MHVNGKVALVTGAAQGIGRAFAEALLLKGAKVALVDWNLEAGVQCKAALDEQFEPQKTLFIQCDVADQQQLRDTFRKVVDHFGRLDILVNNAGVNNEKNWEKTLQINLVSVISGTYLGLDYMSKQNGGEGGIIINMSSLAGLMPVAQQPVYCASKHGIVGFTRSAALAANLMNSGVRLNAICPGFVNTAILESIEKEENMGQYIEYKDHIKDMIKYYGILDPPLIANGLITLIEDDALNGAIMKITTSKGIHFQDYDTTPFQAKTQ
SMILES,Potency,"activity change, negative = inhibition"
O=C(Cc1cccs1)N1CCCC(c2nc3c(nnn3Cc3cccc(Cl)c3)c(=O)[nH]2)C1 (configuration not stated),active: 6.31 µM,–
S=C(NCCSCc1ccc(Cl)cc1Cl)Nc1ccccc1,–,inactive: -26.6%
CCOc1ncccc1C(=O)OCC(=O)Nc1ccc(-c2nc3ccc(C)cc3s2)cc1,"inconclusive [inhibitor, partial curve]",–
CCOC(=O)c1ccc(NC(=O)c2cc(S(=O)(=O)N3CCOCC3)ccc2O)cc1,"inconclusive [inhibitor, partial curve]",–
O=C(CCCSc1nc(-c2ccco2)cc(C(F)(F)F)n1)NCc1cccs1,active: 17.8 µM,–
O=C(Nc1nc(-c2ccc(S(=O)(=O)N3CCCCCC3)cc2)cs1)c1cccs1,"inconclusive [inhibitor, single point]",–
Cc1ccc(NC(=S)N(C)Cc2cn(C)c3ccccc23)cc1,–,inactive: -3.4%
Cc1ccc(-c2nnc(/C=C/c3ccccc3)o2)cc1,"inconclusive [inhibitor, partial curve]",–
Cc1ccc2nc(SCc3ccc([N+](=O)[O-])cc3)nc(C)c2c1,"inconclusive [inhibitor, partial curve]",–
Cc1ccc2c(c1)cc(CN(Cc1ccc3c(c1)OCO3)S(=O)(=O)c1ccccc1)c1nnnn12,"inconclusive [inhibitor, partial curve]",–
CC1CCN(C(=S)c2cn(Cc3cccc(F)c3)c3ccccc23)CC1,–,inactive: -6.39%
Cc1cc2n(n1)C(c1ccc3c(c1)OCO3)Nc1c(C)cccc1-2 (configuration not stated),"inconclusive [inhibitor, partial curve]",–
CC1=C(C(=O)OCC(C)C)C(c2cccc(F)c2)N2C(=O)C(C)SC2=N1 (configuration not stated),"inconclusive [inhibitor, partial curve]",–
O=c1cc(O)c2sc3nc(-c4ccccc4)cc(C(F)(F)F)c3c2[nH]1,"inconclusive [inhibitor, partial curve]",–
COc1ccc(/C=C/C(=O)OCC(=O)Nc2ccc(Cl)c(S(=O)(=O)N(C)C)c2)cc1OC,"inconclusive [inhibitor, partial curve]",–
COCCNC(=O)C(c1ccc(C)o1)N(C(=O)c1snc(C(N)=O)c1N)c1cccc(C)c1 (configuration not stated),"inconclusive [inhibitor, partial curve]",–
Cc1cccc(C)c1NC(=O)N1CCC(c2nc3ccccc3o2)CC1,–,inactive: -6.14%
O=C(CCNC(=O)c1ccccc1Cl)Nc1ccc(Cl)c(C(F)(F)F)c1,active: 22.4 µM,–
O=C1c2cccc(O)c2C(=O)c2c(O)cccc21,active: 35.5 µM,–
O=C(NC1CCCC1)C(c1ccncc1)N(Cc1ccccc1)C(=O)Cc1cccs1 (configuration not stated),–,inactive: -23.4%
O=C(N/N=C/c1ccccc1)c1ccc(CN2C(=O)c3cccc4cccc2c34)cc1,"inconclusive [inhibitor, partial curve]",–
COc1ccc(C(=O)NC(=S)NCc2ccccc2)cc1,–,inactive: -8.78%
O=C(Cc1ccc(Cl)cc1)Nc1ccc(-c2nnc(-c3ccco3)o2)cc1,"inconclusive [inhibitor, single point]",–
CCCCCCC1CC(CCc2nc(=S)[nH][nH]2)C(=O)O1 (configuration not stated),active: 15.8 µM,–

SMILES,Potency,"activity change, negative = inhibition"
CC1=NN(c2ccccc2)C(=O)/C1=C\c1ccc(Oc2ccc([N+](=O)[O-])cc2[N+](=O)[O-])cc1,active: 8.91 µM,–
CCOC(=O)C1CCN(c2c(NCCCN3CCN(Cc4ccccc4)CC3)c(=O)c2=O)CC1,active: 14.1 µM,–
CCOc1cc(/C=N/Nc2ccccc2Cl)ccc1OCC(=O)O,–,inactive: -20.6%
Cc1ccc(-c2cc(C(=O)Nc3cccnc3)c3ccccc3n2)o1,"inconclusive [inhibitor, partial curve]",–
CCSc1nnc(NC(=O)c2cc(C)nc3ccccc23)s1,active: 28.2 µM,–
Brc1ccccc1-c1nnc(SCc2nc3ccccc3s2)o1,"inconclusive [inhibitor, partial curve]",–
Cc1cc(C(=O)Nc2sc3c(c2C#N)CCCC3)no1,active: 28.2 µM,–
O=C(Nc1cccnc1)c1cn(-c2ccccc2)nc1-c1cccs1,–,inactive: -9.54%
CC1(C)CC(=O)C2=C(C1)N(c1ccccc1)C(=O)C2(O)C(F)(F)F (configuration not stated),–,inactive: -7.29%
Cn1c(Cn2nnc3ccccc32)nnc1SCC(=O)N1CCc2ccccc21,–,inactive: -9.49%
Cc1ccc(-c2cc(C(F)F)nc(NCC3CCCO3)n2)cc1 (configuration not stated),"inconclusive [inhibitor, partial curve]",–
CCCCn1c(SCC(=O)Nc2nnc(C)s2)nnc1-c1ccoc1C,–,inactive: 1.63%
Cc1cccc(CNC(=O)c2ccccc2N)c1,"inconclusive [inhibitor, partial curve]",–
CCC(=O)N(Cc1ccco1)c1nc(C(=O)Nc2ccc(Cl)cc2)c(C)s1,"inconclusive [inhibitor, partial curve]",–
O=C(c1ccncc1)N1CCC2(CC1)CN(c1ccccn1)C2,"inconclusive [inhibitor, partial curve]",–
CCCOc1ccc(N2C(=O)CC(SC(=NCC)NCC)C2=O)cc1 (configuration not stated),–,inactive: -3.23%
COc1cccc(-c2ccc(C#N)c(OC(=O)c3c(Cl)cccc3Cl)n2)c1,"inconclusive [inhibitor, partial curve]",–
Nc1ccc(C(=O)c2cccs2)cc1,active: 22.4 µM,–
FC(F)Oc1ccc(NC(=S)NCc2ccccc2)cc1Cl,active: 14.1 µM,–
CCCCn1c(NC(=O)CC)c(C#N)c2nc3ccccc3nc21,"inconclusive [inhibitor, single point]",–
CCN(Cc1ccccc1)C(=O)C1CCC(CNc2c(N3CCOCC3)c(=O)c2=O)CC1 (configuration not stated),active: 25.1 µM,–
O=C(CNC(=O)C(c1ccccc1)c1ccccc1)N/N=C/c1ccc(O)c([N+](=O)[O-])c1,–,inactive: -14.5%
COc1ccc2[nH]c3c(=O)n(CCCCC(=O)N4CCCC4)c(=S)[nH]c3c2c1,active: 4.47 µM,–
